PubChem BioAssay AID652104 (National Center for Advancing Translational Sciences (NCATS), 2013)
The whole screen tested about 410,000 compounds, of which about 7,200 (1.8%) were called active. The inconclusive results got no clear call from the source; some entries with a clear call stand among them for comparison. Calls come from the whole dose curve; as a rule, active = well fitted activation curve with a large enough effect; inconclusive = small, poorly fitted or top-dose-only effect, or another doubt; inactive = no such curve, though single readings can be large or run the other way. No potency is given beside an inconclusive call; the fits are too rough.

test: qHTS of TDP-43 Inhibitors; settings: TDP-43 expressing yeast growth rescue, BacTiter-Glo, 24 h; series mostly up to 46.1 µM; note: nearly all actives have a fitted effect of over 50% in size
Procedure, shortened: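 Luminescence from BacTiter-Glo reports growth of TDP-43-expressing yeast after 24 hr at 30 deg C with compound. Cells were raffinose-pregrown to mid-log, then seeded in galactose medium at OD600=0.02.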
Potency is the fitted concentration of half-maximal effect; tags give direction and shape of the fitted curve.

SMILES | Potency
Cc1cc(C)c(C#N)c(SCC2COc3ccccc3O2)n1 (stereo not given) | inconclusive [activator, partial curve]
COC(=O)[C@@]12C[C@@H](CC(=O)NCc3cccc(C(F)(F)F)c3)C(=O)N(Cc3ccc4c(c3)OCO4)C1=CCC(C)(C)C2 | inactive
O=C(NCC1COc2ccccc2O1)Nc1ccccc1F (stereo not given) | inconclusive [activator, partial curve]
COc1ccc(/C(N)=N/OC(=O)CCC2CCCC2)cc1 | inconclusive [activator, partial curve]
c1ccc(CSc2n[nH]c(-c3ccco3)n2)cc1 | inconclusive [activator, single point]
CCN1CCc2c(OCC(=O)Nc3ccc(C)cc3)cccc2C1=O | inconclusive [activator, partial curve]
COc1ccc2[nH]c(=O)c(CN(CC3CCCO3)C(=O)Nc3ccc(F)cc3)cc2c1 (stereo not given) | inactive
CCOC(=O)C(=Cc1ccccc1)C(=O)c1ccccc1 | active: 6.31 µM
COCc1cc(S(=O)c2ccc(Cl)cc2)nc(C)n1 (stereo not given) | inactive
O=C(O)c1ccc(NCc2nc3ccccc3n2Cc2ccccc2)cc1 | inconclusive [activator, single point]
Brc1c(CSc2nnc(-c3ccco3)o2)nc2ccccn12 | inconclusive [activator, single point]
CNc1nc(NC)nc(-n2c(C(F)(F)F)nc3ccccc32)n1 | inconclusive [activator, single point]
Cc1cc(C)cc(-c2nc(-c3ccncc3)no2)c1 | inconclusive [activator, partial curve]
COc1ccc(OC)c(CNC(=O)c2ccc(Sc3ccc(Cl)cc3)c(NC(C)=O)c2)c1 | inactive
Nc1c(-c2cccc(Cl)c2)cnn1-c1cccc([N+](=O)[O-])c1 | active: 10 µM
C=CCc1ccc(OCC(O)COc2ccc(CC=C)cc2OC)c(OC)c1 | inconclusive [activator, single point]
O=S(=O)(c1cccnc1)N1CCCC(Nc2ccc(F)c(F)c2)C1 (stereo not given) | inconclusive [activator, single point]
CCOc1c2ccc(C(=O)NCCCCc3ccccc3)cc2nn1C | inconclusive [activator, partial curve, poor fit]
O=C(CSc1ncn[nH]1)Nc1ccnc2ccccc12 | inconclusive [activator, full curve]
CC(C)C[C@@H]1CC2=C(C(=O)OC(C)(C)O2)[C@H](c2ccc(Cl)cc2)O1 | inconclusive [activator, single point]
CCc1ccc2nc(N3CCN(C(=O)c4ccccc4)CC3)sc2c1 | active: 11.2 µM
COCCNC(=O)c1cc2c(-c3ccc(Cl)cc3)nn(C)c2s1 | inconclusive [activator, partial curve]
COc1ccc(C(=O)OCC(=O)NC(=O)NC2CCCC2)c(OC)c1 | inconclusive [activator, single point]

SMILES | Potency
COc1ccc(OC)c2c1sc(=NC(=O)c1ccco1)n2C | inconclusive [activator, full curve]
Cc1ccc(C)c(NC(=O)CCS(=O)(=O)c2cccc3nsnc23)c1 | inactive
Cc1cc(SCC(=O)N(C)CC(=O)Nc2ccc(F)cc2)nc2ccccc12 | inconclusive [activator, single point]
Cc1nc([N+](=O)[O-])c(Br)n1CC(=O)c1ccc(Cl)cc1 | active: 12.6 µM
CCNS(=O)(=O)c1cc(-c2nnc(Nc3cccc(C(F)(F)F)c3)c3ccccc23)ccc1C | inactive
Cc1c(C(=O)NCCSCc2cccc(C(F)(F)F)c2)cnn1-c1ccc(Cl)cc1 | inconclusive [activator, single point]
CSc1ncccc1C(=O)OCC(=O)NC(C)CCc1ccccc1 (stereo not given) | inconclusive [activator, partial curve]
O=c1[nH]c(/C=C/c2cccc(Br)c2)nc2ccccc12 | inconclusive [activator, full curve, poor fit]
O=C(Nc1cccc(C(F)(F)F)c1)c1sc(Cl)nc1C(F)(F)F | active: 12.6 µM
Cc1ccc(CSc2nc(=O)c3c(C)cc(C)nc3n2C2CC2)cc1 | active: 3.16 µM
CC(=O)N1N=C(c2cccc([N+](=O)[O-])c2)OC1c1ccc(Cl)cc1Cl (stereo not given) | inconclusive [activator, single point]
CCOc1ccc(NC(=O)CC2CC(C)(C)OC2=O)cc1 (stereo not given) | inactive
Cc1ccc(NC(=O)CSc2ncnc3ccccc23)cc1S(=O)(=O)N1CCCCCC1 | inconclusive [activator, partial curve]
Cc1cccc(-n2nc([N+](=O)[O-])c(=NCc3cccnc3)n2O)c1 | inconclusive [activator, single point]
c1ccc(Nc2scc(-c3ccccc3)[n+]2Cc2ccco2)cc1 | active: 20 µM
Cc1ccc(NC2=CC(=O)C(=O)c3ccccc32)c(C)c1 | inconclusive [activator, full curve]
O=C(CNc1cccc2ccccc12)N/N=C/c1ccc([N+](=O)[O-])o1 | active: 20 µM
CC[C@H]1c2[nH]c3ccc(C(C)C)cc3c2[C@@H]2CCN3C(=O)CCC[C@H]1[C@H]23 | inconclusive [activator, partial curve]
O=C(Nc1cccc(Cl)c1)C1COc2ccccc2O1 (stereo not given) | inconclusive [activator, partial curve]
COc1ccc(-c2nc(CCNC(=O)c3cc(OC)c(OC)c(OC)c3)cs2)cc1 | inconclusive [activator, single point]
CCN(CC)CCCNC(=O)C1c2ccccc2C(=O)N(C)C1c1ccc(OC)cc1 (stereo not given) | active: 22.4 µM
COc1ccc(C(CNC(=O)c2ccc(OCC3CCCO3)cc2)N2CCOCC2)cc1 (stereo not given) | inactive
